Lines with a small IC50 respond at low doses; a limit (>, <) means that the fit lies beyond the doses tested. For AUC the same curve is integrated over the 256-fold range of doses and scaled to a fraction; it is 1 without any effect and falls as sensitivity rises. For some of these results: A top dose marked as inferred comes from the curve model; the source does not state it. For some of these results: Where an entry number is given, a second screen of the drug exists; the two often differ.
What was measured:
Test in all cases: Viability of human cancer cell lines after 72 h of drug (GDSC screen)
Tamoxifen = compound: CC/C(=C(\c1ccccc1)c1ccc(OCCN(C)C)cc1)c1ccccc1 [Tamoxifen]; conditions: top dose 5 µM
Protocol: (§1)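 Human cancer cell lines in 384-well plates, medium with 10% serum, drug for 72 h over a 256-fold dose range (nine 2-fold or five 4-fold steps up to the top dose). Adherent lines were fixed and stained with the nucleic acid dye Syto60, suspension lines read with resazurin; signal relative to control wells, capped at 0 and 100%. One two-parameter sigmoid per drug and line, fitted in a mixed model over all curves with the slope shared within a line.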

VNLG/124 = compound: CCCC(=O)OCc1ccc(OC(=O)/C=C(C)/C=C/C=C(C)/C=C/C2=C(C)CCCC2(C)C)cc1 [VNLG/124]; conditions: top dose 5.12 µM; top dose inferred
Protocol: as §1

Elesclomol = compound: CN(NC(=O)CC(=O)NN(C)C(=S)c1ccccc1)C(=S)c1ccccc1 [Elesclomol]; conditions: top dose 0.2 µM; top dose inferred
Protocol: as §1

Bleomycin = compound: Cc1c(N)nc([C@H](CC(N)=O)NC[C@H](N)C(N)=O)nc1C(=O)N[C@H](C(=O)N[C@H](C)[C@@H](O)[C@H](C)C(=O)N[C@H](C(=O)NCCc1nc(-c2nc(C(=O)NCCC[S+](C)C)cs2)cs1)[C@@H](C)O)[C@@H](OC1OC(CO)C(O)C(O)C1OC1OC(CO)C(O)C(OC(N)=O)C1O)c1cnc[nH]1 [Bleomycin]
Protocol: as §1

Masitinib = compound: Cc1ccc(NC(=O)c2ccc(CN3CCN(C)CC3)cc2)cc1Nc1nc(-c2cccnc2)cs1 [Masitinib]; conditions: top dose 20 µM
Protocol: as §1

LAQ824 = compound: O=C(/C=C/c1ccc(CN(CCO)CCc2c[nH]c3ccccc23)cc1)NO [LAQ824]; conditions: top dose 1.024 µM; top dose inferred
Protocol: as §1

OSI-930 = compound: O=C(Nc1ccc(OC(F)(F)F)cc1)c1sccc1NCc1ccnc2ccccc12 [OSI-930]; conditions: top dose 10.24 µM
Protocol: as §1

BX-912 = compound: O=C(Nc1cccc(Nc2ncc(Br)c(NCCc3cnc[nH]3)n2)c1)N1CCCC1 [BX-912]; conditions: top dose 10.24 µM; top dose inferred
Protocol: as §1

NSC-87877 = compound: O=S(=O)(O)c1ccc2cc(N=Nc3cc(S(=O)(=O)O)c4cccnc4c3O)ccc2c1 [NSC-87877]; conditions: top dose 16 µM; top dose inferred
Protocol: as §1

[1] = top dose 50 µM, screen: GDSC drug entry 1378, top dose inferred
[2] = top dose 64 µM, screen: GDSC drug entry 190

Row | Cell Line | AUC (Tamoxifen) | IC50 (Tamoxifen) [µM] | AUC (VNLG/124) | IC50 (VNLG/124) [µM] | AUC (Elesclomol) | IC50 (Elesclomol) [µM] | AUC (Bleomycin; [1]) | IC50 (Bleomycin; [1]) [µM] | AUC (Bleomycin; [2]) | IC50 (Bleomycin; [2]) [µM] | AUC (Masitinib) | IC50 (Masitinib) [µM] | AUC (LAQ824) | IC50 (LAQ824) [µM] | AUC (OSI-930) | IC50 (OSI-930) [µM] | AUC (BX-912) | IC50 (BX-912) [µM] | AUC (NSC-87877) | IC50 (NSC-87877) [µM]
1 | CTV-1 (acute myeloid leukaemia, suspension) | 0.985 | > 5 | 0.985 | > 5.12 | 0.563 | 0.0179 | 0.581 | 4.98 | 0.538 | 4.97 | 0.645 | 2.88 | 0.339 | 0.0252 | 0.833 | 4.88 | 0.718 | 2.29 | 0.984 | > 16
2 | NCI-H1581 (large cell lung carcinoma, semi-adherent) | 0.987 | > 5 | 0.987 | > 5.12 | 0.625 | 0.0268 | 0.714 | 11.9 | 0.896 | > 64 | 0.847 | 13 | 0.563 | 0.0939 | 0.931 | > 10.2 | 0.831 | 5.8 | 0.986 | > 16
3 | Mewo (melanoma, adherent) | 0.983 | > 5 | 0.982 | > 5.12 | 0.602 | 0.0252 | 0.509 | 3.32 | 0.839 | 56.7 | 0.946 | > 20 | 0.843 | 0.95 | 0.978 | > 10.2 | 0.983 | > 10.2 | 0.836 | 13.7
4 | T-T (oesophagus, adherent) | 0.986 | > 5 | 0.986 | > 5.12 | 0.502 | 0.0126 | 0.637 | 7.44 | 0.32 | 1.26 | 0.896 | > 20 | 0.307 | 0.0184 | 0.978 | > 10.2 | 0.987 | > 10.2 | 0.957 | > 16
5 | PC-3 [JPC-3] (lung adenocarcinoma, adherent) | 0.978 | > 5 | 0.947 | > 5.12 | 0.838 | > 0.2 | 0.798 | 33.1 | 0.578 | 6.99 | 0.898 | > 20 | 0.458 | 0.0473 | 0.965 | > 10.2 | 0.892 | > 10.2 | 0.981 | > 16
6 | KU812 (chronic myeloid leukaemia, suspension) | 0.978 | > 5 | 0.988 | > 5.12 | 0.868 | 0.156 | 0.874 | 41.4 | 0.695 | 13.3 | 0.803 | 8.91 | 0.305 | 0.0192 | 0.835 | 5.92 | 0.599 | 1.17 | 0.894 | > 16
7 | OE19 (oesophagus, adherent) | 0.975 | > 5 | 0.981 | > 5.12 | 0.708 | 0.0526 | 0.844 | 43 | 0.417 | 2.3 | 0.942 | > 20 | 0.382 | 0.029 | 0.975 | > 10.2 | 0.986 | > 10.2 | 0.976 | > 16
8 | UM-UC-3 (bladder, adherent) | 0.985 | > 5 | 0.988 | > 5.12 | 0.643 | 0.0302 | 0.368 | 1.38 | 0.296 | 1.11 | 0.936 | > 20 | 0.625 | 0.139 | 0.894 | > 10.2 | 0.885 | 9.99 | 0.988 | > 16
9 | SNU-182 (liver, adherent) | 0.972 | > 5 | 0.986 | > 5.12 | 0.503 | 0.0127 | 0.869 | 49.6 | 0.655 | 11 | 0.943 | > 20 | 0.555 | 0.0913 | 0.982 | > 10.2 | 0.606 | 1.27 | 0.979 | > 16
10 | Hs633T (fibrosarcoma, adherent) | 0.976 | > 5 | 0.978 | > 5.12 | 0.426 | 0.00814 | 0.167 | 0.401 | 0.236 | 0.828 | 0.892 | 16 | 0.535 | 0.0783 | 0.947 | > 10.2 | 0.908 | 9.64 | 0.985 | > 16
11 | EBC-1 (lung squamous cell carcinoma, adherent) | 0.913 | > 5 | 0.978 | > 5.12 | 0.644 | 0.033 | 0.776 | 22.5 | 0.439 | 2.67 | 0.898 | > 20 | 0.306 | 0.0169 | 0.952 | > 10.2 | 0.886 | > 10.2 | 0.976 | > 16
12 | LU-134-A (small cell lung carcinoma, suspension) | 0.982 | > 5 | 0.987 | > 5.12 | 0.921 | > 0.2 | 0.935 | > 50 | 0.854 | 55.4 | 0.937 | > 20 | 0.436 | 0.0423 | 0.968 | > 10.2 | 0.688 | 2.23 | 0.987 | > 16
13 | GDM-1 (acute myeloid leukaemia, suspension) | 0.956 | > 5 | 0.948 | > 5.12 | 0.983 | > 0.2 | 0.908 | > 50 | 0.146 | 0.34 | 0.153 | 0.114 | 0.23 | 0.011 | 0.158 | 0.0606 | 0.376 | 0.295 | 0.987 | > 16
14 | HuO-3N1 (osteosarcoma, adherent) | 0.971 | > 5 | 0.951 | > 5.12 | 0.61 | 0.0277 | 0.807 | 36.2 | 0.853 | > 64 | 0.944 | > 20 | 0.585 | 0.118 | 0.975 | > 10.2 | 0.849 | > 10.2 | 0.981 | > 16
15 | CA46 (Burkitt lymphoma, suspension) | 0.967 | > 5 | 0.909 | > 5.12 | 0.907 | > 0.2 | 0.955 | > 50 | 0.913 | > 64 | 0.818 | 12.3 | 0.211 | 0.00837 | 0.91 | > 10.2 | 0.653 | 1.76 | 0.984 | > 16
16 | PF-382 (T-cell lymphoblastic leukaemia, suspension) | 0.99 | > 5 | 0.984 | > 5.12 | 0.937 | > 0.2 | 0.839 | 28.1 | 0.19 | 0.56 | 0.879 | 16.1 | 0.273 | 0.016 | 0.957 | > 10.2 | 0.289 | 0.178 | 0.983 | > 16
17 | P30-OHK (lymphoblastic leukaemia, suspension) | 0.99 | > 5 | 0.991 | > 5.12 | 0.977 | > 0.2 | 0.332 | 1.17 | 0.597 | 7.03 | 0.831 | 9.85 | 0.257 | 0.0149 | 0.918 | > 10.2 | 0.55 | 0.855 | 0.991 | > 16
18 | KARPAS-299 (anaplastic large cell lymphoma, suspension) | 0.984 | > 5 | 0.992 | > 5.12 | 0.881 | 0.149 | 0.812 | 21.4 | 0.768 | 20.1 | 0.876 | 14.3 | 0.47 | 0.0537 | 0.97 | > 10.2 | 0.931 | > 10.2 | 0.988 | > 16
19 | G-402 (soft tissue, adherent) | 0.918 | > 5 | 0.963 | > 5.12 | 0.274 | 0.00225 | 0.278 | 0.584 | 0.153 | < 0.25 | 0.661 | 4.08 | 0.478 | 0.0548 | 0.91 | > 10.2 | 0.591 | 1.23 | 0.955 | > 16
20 | HMV-II (melanoma, adherent) | 0.98 | > 5 | 0.982 | > 5.12 | 0.786 | 0.107 | 0.767 | 22.6 | 0.154 | 0.252 | 0.735 | 6.93 | 0.459 | 0.0482 | 0.929 | > 10.2 | 0.942 | > 10.2 | 0.912 | > 16
21 | NCI-H2405 (lung adenocarcinoma, adherent) | 0.975 | > 5 | 0.986 | > 5.12 | 0.681 | 0.0425 | 0.737 | 16.2 | 0.518 | 4.51 | 0.931 | > 20 | 0.47 | 0.0524 | 0.95 | > 10.2 | 0.921 | > 10.2 | 0.946 | > 16
22 | NCI-H1417 (small cell lung carcinoma, suspension) | 0.964 | > 5 | 0.966 | > 5.12 | 0.469 | 0.0101 | 0.938 | > 50 | 0.797 | 36.8 | 0.871 | > 20 | 0.241 | 0.00969 | 0.909 | > 10.2 | 0.676 | 2.19 | 0.98 | > 16
23 | EB-3 (Burkitt lymphoma, suspension) | 0.946 | > 5 | 0.797 | 2.87 | 0.94 | > 0.2 | 0.924 | > 50 | 0.731 | 20.5 | 0.839 | 17 | 0.602 | 0.128 | 0.945 | > 10.2 | 0.79 | 5.39 | 0.984 | > 16
24 | DK-MG (glioma, adherent) | 0.975 | > 5 | 0.978 | > 5.12 | 0.556 | 0.0191 | 0.567 | 5.19 | 0.866 | > 64 | 0.739 | 8.62 | 0.791 | 0.74 | 0.774 | 6.18 | 0.605 | 1.43 | 0.966 | > 16
25 | MZ2-MEL (melanoma, adherent) | 0.97 | > 5 | 0.975 | > 5.12 | 0.522 | 0.0145 | 0.829 | 38.5 | 0.458 | 3 | 0.705 | 5.28 | 0.466 | 0.0507 | 0.902 | > 10.2 | 0.897 | > 10.2 | 0.983 | > 16
26 | 23132-87 (stomach, adherent) | 0.979 | > 5 | 0.984 | > 5.12 | 0.742 | 0.0634 | 0.402 | 1.66 | 0.221 | 0.589 | 0.939 | > 20 | 0.456 | 0.0484 | 0.982 | > 10.2 | 0.952 | > 10.2 | 0.98 | > 16
